Laboratory results published in PubChem BioAssay AID445 (National Center for Advancing Translational Sciences (NCATS), 2006).
Screen size: about 110,000 compounds; about 40 (0.04%) were called active. This list was built around the results that the source calls inconclusive (neither active nor inactive); the mix of calls is not that of the screen. The call rests on the fitted dose curve; in most records, active means well fitted curve in the direction sought with a large enough effect in the signal ratio (not every such curve was filed as active); inconclusive means small, poorly fitted or top-dose-only effect, or a change in a side signal; inactive means flat fitted curve, though single readings scatter; the % refers to the signal ratio. Potencies beside an inconclusive call are fits to weak or partial responses and may not hold up.
Potency means the concentration at half of the fitted maximal effect.

Assay: IkB Signaling;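 on IkBa stabilization activation: 0% = basal untreated cells and 100% = reference inhibitor full response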
Details: ABC-DLBCL IkBa-CBG/CBR dual luciferase ratio (green luciferase fused to IkBa over red control in OCI-Ly3 lymphoma cells), 4 h; IkBa stabilization activation: at 57.1 µM (top of the series), scaled: untreated 0%, proteasome inhibitor 100% unless noted
How it was run: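 In this assay, an IκBα–CBG68 fusion accumulates when IKK-driven degradation is blocked; native CBR normalizes for cell number. OCI-Ly3 cells were treated 4 h with compound and doxycycline, then green and red light read after Chroma-Glo addition.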
With `CC(=O)Nc1ccccc1-c1nc2ccccc2n(CC(=O)Nc2cccc(C)c2C)c1=O` the IkBa stabilization activation was inconclusive: 1.59% [signal inhibitor].
With `Cc1cc(C)cc(N2C(=O)CSC23C(=O)N(Cc2c(F)cccc2Cl)c2ccccc23)c1` (stereo unspecified) the IkBa stabilization activation was inconclusive: 1.53% [signal inhibitor].
For `Cc1cccc2nc(-c3ccccn3)c(Nc3ccc(F)cc3)n12`, the IkBa stabilization activation was inconclusive: 3.93% [signal inhibitor].
For `CCCCOc1ccc(CSc2ncn[nH]2)cc1`, the IkBa stabilization activation was inconclusive: 5.06% [signal inhibitor].
In the case of `CC(=O)c1sc(NC(=O)c2ccccc2F)nc1C`, the Potency is reported as inconclusive: 25.1 µM [signal inhibitor, partial curve].
With `CC(C)(C)OC(=O)N1CCC(c2c(C(=O)NCCc3ccsc3)cnn2-c2ccc(F)cc2F)CC1` the IkBa stabilization activation was inconclusive: -2.11% [signal inhibitor].
For `CCOC(=O)c1c(Nc2ccc(OCC)cc2)nnc(-c2ccccc2)c1-c1ccccc1`, the Potency was inconclusive: 20 µM [signal inhibitor].
With `COc1ccccc1NC(=O)CSc1ncc(CO)n1Cc1ccc(F)cc1` the IkBa stabilization activation was “inactive”.
In the case of `CCC(Sc1nc(C)cc(=O)[nH]1)C(=O)Nc1nnc(C)s1` (stereo unspecified), the IkBa stabilization activation is reported as “inactive”.
For `CC(C)c1cnc2c(c1SCC(=O)c1ccc(Cl)cc1)c(=O)n(C)c(=O)n2C`, the IkBa stabilization activation was inconclusive: 3.18% [signal inhibitor].
In the case of `Cc1cccc(N2CCN(C(=O)C3CCN(S(=O)(=O)Cc4ccccc4)CC3)CC2)c1C`, the IkBa stabilization activation is reported as “inactive”.
With `COc1ccc(Cl)cc1NC(=O)CN1CCC(n2nnc3cc(F)ccc32)CC1` the IkBa stabilization activation was inconclusive: 4.99% [signal activator].
For `Cc1cc(N2CCN(c3nc(N4CCOCC4)nc4ccccc34)CC2)c2ccccc2n1`, the IkBa stabilization activation was “inactive”.
For `Cc1cc(-c2ccccc2)nc2cc(C(=O)Nc3ccc(Cl)c(Cl)c3)nn12`, the IkBa stabilization activation was inconclusive: 12% [signal inhibitor].
With `CO[C@@H]1/C=C\O[C@]2(C)Oc3c(C)c(O)c4c(O)c(c(/C=N\N5CCN(C)CC5)c(O)c4c3C2=O)NC(=O)/C(C)=C\C=C/[C@H](C)[C@H](O)[C@H](C)[C@H](O)[C@H](C)[C@H](OC(C)=O)[C@@H]1C` the IkBa stabilization activation was inactive: -0.628% [at 11.4 µM, scaled: untreated 0%, proteasome inhibitor 100%].
For `CCOc1ccc(NCc2cccn2-c2nnc(N3CCC(C(=O)NCCc4ccc(OCC)c(OCC)c4)CC3)s2)cc1`, the IkBa stabilization activation was inconclusive: -1.48% [signal inhibitor].
With `COc1ccc(C(=O)N2CC=C(c3ccccc3)CC2)cc1S(=O)(=O)N1CCOCC1` the IkBa stabilization activation was inconclusive: 0.828% [signal inhibitor].
With `COC(=O)c1[nH]c2ccc(C)cc2c1NC(=O)CN1CCN(c2ccc(F)cc2)CC1` the IkBa stabilization activation was “inactive”.
For `CCOC(=O)c1[nH]c2c(c1C)C(=O)CC(c1ccco1)C2` (stereo unspecified), the Potency was inconclusive: 12.6 µM [signal activator, partial curve].
In the case of `COc1ccccc1-c1noc(CCC(=O)Nc2cccc(C(F)(F)F)c2)n1`, the IkBa stabilization activation is reported as inconclusive: 6.74% [signal inhibitor].
With `Cc1cccc(NC(=O)C(=O)NCC(c2cccnc2)N2CCN(Cc3ccccc3)CC2)c1` (stereo unspecified) the IkBa stabilization activation was inconclusive: 0.7% [signal inhibitor].
With `COc1ccc(OC)c(NC(=O)C(Cc2ccccc2)NS(=O)(=O)c2ccc3c(c2)CCC(=O)N3)c1` (stereo unspecified) the IkBa stabilization activation was inconclusive: -0.101% [signal inhibitor].
For `CCn1cc2nc(SCc3c(F)cccc3Cl)n(CCc3ccccc3)c(=O)c2n1`, the IkBa stabilization activation was inconclusive: 9.92% [signal inhibitor].
With `CCN(CC)S(=O)(=O)c1ccc2c(c1)N(CC(=O)Nc1cccc(C(C)=O)c1)C(=O)CO2` the IkBa stabilization activation was inconclusive: 0.764% [signal inhibitor].
In the case of `CCCN1C(=O)/C(=C2\SC(N3CCCCC3)=NC2=O)c2ccccc21`, the IkBa stabilization activation is reported as “inactive”.
For `COc1ccc(Cl)cc1S(=O)(=O)Nc1ccc2c(c1)n(C)c(=O)n2C`, the Potency was inconclusive: 25.1 µM [rising, single point].
For `Cc1cccc(N2CCN(C(=O)c3ccc(N4CCCC4=O)cc3)CC2C)c1` (stereo unspecified), the IkBa stabilization activation was inconclusive: 0.0246% [signal inhibitor].
For `C#CCOc1c(Br)cc(C2C(C(=O)OC)=C(C)NC3=C2C(=O)c2ccccc23)cc1OCC` (stereo unspecified), the IkBa stabilization activation was inconclusive: 13.5% [signal inhibitor].
In the case of `COc1ccc(Nc2nc(C)c3ccccc3n2)cc1`, the IkBa stabilization activation is reported as “inactive”.
With `O=C(CCCOc1ccccc1)N1CCN(c2ccccn2)CC1` the IkBa stabilization activation was “inactive”.
With `Cc1c(N=Cc2nc3ccccc3[nH]2)c(=O)n(-c2ccccc2)n1C` the IkBa stabilization activation was “inactive”.
With `COc1cc(OC)c(NC(=O)c2nn(C)c3c2COc2ccccc2-3)cc1Cl` the IkBa stabilization activation was inconclusive: 1.46% [signal inhibitor].
For `CN1C(=O)CSc2ccc(NC(=O)N3CCN(c4ccccn4)CC3)cc21`, the IkBa stabilization activation was inconclusive: 2.12% [signal inhibitor].
In the case of `Cc1cccc(C(=O)Nc2nnc(S(=O)(=O)N3CCOCC3)s2)c1`, the IkBa stabilization activation is reported as inconclusive: 0.0485% [signal inhibitor].
For `Cc1ccc(-c2nnc(Nc3cccc(Br)c3)c3ccccc23)cc1S(=O)(=O)N1CCN(C)CC1`, the IkBa stabilization activation was inconclusive: 4.75% [signal inhibitor].
In the case of `O=C(CSc1c2c(nc3ccc(Cl)cc13)CCCC2)N1CCN(c2ccc(Cl)cc2)CC1`, the IkBa stabilization activation is reported as inconclusive: -0.866% [signal inhibitor].
For `CCOc1ccc(OC(=O)c2sc3ncn(Cc4cccc(F)c4)c(=O)c3c2C)cc1`, the IkBa stabilization activation was inconclusive: -0.198% [signal inhibitor].
In the case of `CSc1ccc(CCNS(=O)(=O)c2cc(-c3cc(C)no3)ccc2C)cc1`, the IkBa stabilization activation is reported as inconclusive: 7.38% [signal inhibitor].
For `Cc1[nH]c2ccccc2c1C1(O)C(=O)N(Cc2ccccc2)c2ccc(Br)cc21` (stereo unspecified), the IkBa stabilization activation was inconclusive: -4.79% [signal inhibitor].
For `COc1ccccc1CNc1ncnc2onc(-c3ccc(Cl)cc3)c12`, the IkBa stabilization activation was inconclusive: -0.897% [signal inhibitor].
For `Cc1nc2ccccc2c2oc(C(=O)NCc3ccc4c(c3)OCO4)cc12`, the IkBa stabilization activation was inconclusive: -2.1% [signal inhibitor].
For `O=C(c1ccco1)N1CCN(C(=O)C2CCCc3c2[nH]c2ccc(Cl)cc32)CC1` (stereo unspecified), the IkBa stabilization activation was inconclusive: 0.895% [signal inhibitor].
With `CCOC(=O)c1c(NC(=O)c2cc(=O)c3c(C)cc(C)cc3o2)sc(C)c1C` the IkBa stabilization activation was inconclusive: 6.84% [signal inhibitor].
With `c1ccn2c(SCc3ccc4c(c3)OCO4)nnc2c1` the IkBa stabilization activation was “inactive”.
In the case of `COc1ccc(-n2nc3c(N4CCCC(C(=O)NCc5ccccc5C)C4)nnc(C)c3c2C)cc1` (stereo unspecified), the IkBa stabilization activation is reported as inconclusive: -2.65% [signal inhibitor].
With `COc1ccccc1NC(=O)CC1C(=O)Nc2c1c(=O)n(C)c(=O)n2C` (stereo unspecified) the Potency was inconclusive: 25.1 µM [signal inhibitor, partial curve].
With `CCOC(=O)c1cc(-c2ccco2)nc2c1c(C)nn2CCC#N` the IkBa stabilization activation was “inactive”.
In the case of `Cc1nnc(SCC(=O)NCc2cccc(F)c2)c2nn(-c3ccccc3)c(C)c12`, the IkBa stabilization activation is reported as “inactive”.
With `CCOc1ccc(NC(=O)C(C)SC(N)=O)cc1` (stereo unspecified) the IkBa stabilization activation was inconclusive: 16.3% [signal activator].
For `Cc1ccc(-n2ncc(C(=O)NCCN3CCc4ccccc4C3)c2C2CCN(C(=O)OC(C)(C)C)CC2)c(C)c1`, the IkBa stabilization activation was inconclusive: 2.08% [signal inhibitor].
In the case of `Cc1oc(-c2ccc(Cl)cc2)nc1CN1CCCC(C(=O)NCc2cccnc2)C1` (stereo unspecified), the IkBa stabilization activation is reported as inconclusive: 1.53% [signal inhibitor].
For `Cc1ccc2nc(-c3ccc(N4CCOCC4)cc3)c(Nc3ccccc3C)n2c1`, the IkBa stabilization activation was inconclusive: 6.44% [signal inhibitor].
In the case of `COc1ccc(-n2c(COc3cccc(C)c3)nnc2SCC(=O)NCc2ccco2)cc1`, the IkBa stabilization activation is reported as inconclusive: 9.46% [signal inhibitor].
With `O=S1(=O)C=C(Sc2nc3cc(Cl)ccc3o2)c2ccccc21` the Potency was inconclusive: 3.16 µM [rising, partial curve].
With `Cc1cccc(C(=O)NCc2nnc(SCC(=O)Nc3ccccc3F)n2-c2ccccc2)c1` the IkBa stabilization activation was inconclusive: 0.491% [signal inhibitor].
With `CCOC(=O)c1cc(-c2ccc(OC)cc2)n(CCC(=O)NC2CCC(C)CC2)c1C` (stereo unspecified) the IkBa stabilization activation was “inactive”.
With `CCOc1ccc(-c2n[nH]c3c2C(c2cccs2)N(c2ccc(Br)cc2)C3=O)cc1` (stereo unspecified) the IkBa stabilization activation was “inactive”.
In the case of `COc1ccc(Cl)cc1C(=O)NCC(c1ccco1)N1CCCC1` (stereo unspecified), the IkBa stabilization activation is reported as inconclusive: 4.97% [signal inhibitor].
In the case of `COC(=O)c1ccc(Oc2nc3c(c(=O)n(C)c(=O)n3C)n2CCC(C)C)cc1`, the IkBa stabilization activation is reported as “inactive”.
For `CC(=O)N1c2ccc(S(=O)(=O)NCC3CCC(C(=O)Nc4cccc(F)c4)CC3)cc2CC1C` (stereo unspecified), the IkBa stabilization activation was inconclusive: 1.89% [signal inhibitor].
With `O=C(c1ccccc1)n1nc(-c2ccccc2)nc1NCc1ccco1` the IkBa stabilization activation was inconclusive: 6.51% [signal inhibitor].
With `O=C(CSc1nc2ccccc2o1)c1cc2ccccc2oc1=O` the Potency was inconclusive: 31.6 µM [signal inhibitor, partial curve].
For `CCOC(=O)N1CCc2c(sc(NCc3ccc(N(C)C)cc3)c2C(=O)Nc2ccccc2OCC)C1`, the IkBa stabilization activation was inconclusive: 0.26% [signal inhibitor].
For `Nc1ccc2nc(-c3ccc(Cl)cc3)[nH]c2c1`, the IkBa stabilization activation was inconclusive: 12.7% [signal inhibitor].
With `CN(C)c1nc(-c2cccnc2)nc2ccccc12` the IkBa stabilization activation was inactive: -2% [at 11.4 µM, scaled: untreated 0%, proteasome inhibitor 100%].
In the case of `COc1cccc(C2C=C(c3ccc(C)cc3)Nc3c(C(=O)Nc4ccc(F)cc4)cnn32)c1OC` (stereo unspecified), the IkBa stabilization activation is reported as inconclusive: 1.43% [signal inhibitor].
